Measured values from patent US20020123504A1, “Lactose-free, non-hygroscopic and anhydrous pharmaceutical compositions of descarboethoxyloratadine” (SEPRACOR INC., priority 1997, published 2002).
Where “and” joins values, the source holds several entries; their conditions need not be identical. Identical values can stand only once.

Experiment: Reactivity with lactose under accelerated storage (60° C. at 75% RH)
[1] = 4 weeks 60° C./75% RH, 80% lactose
[2] = 4 weeks 60° C./75% RH, 80% lactose/5% H2O

| Compound | % Initial (1 week 60° C./75% RH, 80% lactose/5% H2O, particle sizes reduced with mortar and pestle) | % Initial (4 weeks 60° C./75% RH, 80% high surface area Fast Flo lactose) | % Initial [1] | % Initial [2] | % Initial (4 weeks 60° C./75% RH, neat) |
| --- | --- | --- | --- | --- | --- |
| Clc1ccc2c(c1)CCc1cccnc1C2=C1CCNCC1 [DCL, 8-chloro-6,11-dihydro-11-(4-piperidylidene)-5H-benzo[5,6]cyclohepta[1,2-b]pyridine] | 90.35% | 46.95% and 49.52% | 68.58% | 49.57% | 99.70% |
| CCOC(=O)N1CCC(=C2c3ccc(Cl)cc3CCc3cccnc32)CC1 [Loratadine, loratadine] |  |  | 100.33% | 100.37% | 99.35% |
